Measured values taken from the supplement of paper PMC10185492.
This is one part of the list. Values come from read counts of a selection and are noisy.

tested on: SARS-CoV-2 3CLpro (nsp5); experiment: substrate phage enrichment score (protease-eluted vs HEPES control, +1 offset) (ratio); higher = better cleaved substrate; details: selection round: 3; protease elution time: 0.5 h
Method: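 Random heptapeptide substrate phage display (M13 pIII fusion, heptapeptide between an N-terminal biotinylated AviTag GLNDIFEAQKIEWHE and pIII; phages immobilised on streptavidin) eluted by cleavage with 50 nM protease in 20 mM HEPES at 37 °C. Selected phages were NGS sequenced, and the enrichment score is (reads in protease sample + 1)/(reads in HEPES blank-selection control + 1).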

Row | Substance | substrate phage enrichment score
1 | HTQPTLS | > 28
2 | RPGPQEQ | 1.4
3 | CTRPLPG | > 33
4 | ACKYNRQ | > 61
5 | KPTSLLD | 1.14
6 | RRCNISR | 1.17
7 | PHVSKPA | > 31
8 | YSAAAHH | 1.53
9 | LNWRVTT | 4.75
10 | SEAAHHH | 1.01
11 | FAPTPHV | 4.75
12 | SDGTSYI | 1.2
13 | TAVTEGT | 0.643
14 | PGDTGAT | > 22
15 | PTRPSSR | 4.22
16 | PYPAAHH | 38.5
17 | CSSKRPA | 3.4
18 | WYLTPNR | 1.59
19 | KPVDVSR | > 26
20 | PRAAHHH | 1
21 | NQPSKPA | 1.57
22 | PWSTGMQ | 0.289
23 | ITPTRLQ | > 56

Row | Substance | substrate phage enrichment score
24 | AKLQSQW | > 30
25 | RDCIREA | 2
26 | RQSTSPK | 1.94
27 | EHNSCLQ | > 32
28 | TPAHHHH | 1.07
29 | LKPVQTR | 5
30 | NRRHCAR | 15
31 | ELNIQGG | > 27
32 | KSSPAAH | 1.41
33 | YGEVTLQ | 297
34 | GGSYIMH | 2.25
35 | RDQPPAK | 10.5
36 | NPRCQHP | 13
37 | EAWSPPA | 13.5
38 | TKFLTNG | 12
39 | KKQTLLQ | > 107
40 | QNFQGGS | 0.6
41 | IQCVVKP | 0.353
42 | CTQWPRS | 0.4
43 | KWTNLPR | 6.33
44 | LDFQGGS | 0.811
45 | SDYVRPR | 2
46 | ACQGNWR | 1.73

Row | Substance | substrate phage enrichment score
47 | TPPNSLR | 0.656
48 | ETFHASG | 5
49 | TQMSTTS | > 22
50 | SMAAHHH | 0.773
51 | TACLQGR | 8.67
52 | THSQWPN | 19
53 | SNPNHMI | 5.9
54 | CTDTLSR | > 159
55 | SRTRLQG | 138
56 | CKLRKPV | 2.83
57 | KPNQSHQ | > 21
58 | HQLASPK | 0.857
59 | RHNIRAG | 0.0741
60 | RSQCALH | 15.5
61 | GRPLHGQ | > 25
62 | CDAAHHH | 0.571
63 | AHWKGMN | 0.917
64 | VYLQGWL | 6.67
65 | DKWVPTD | 0.533
66 | FSLSAGH | 3.33
67 | HQTKGPG | > 23
68 | ASAPLLQ | > 260
69 | DAAAHHH | 0.76

Row | Substance | substrate phage enrichment score
70 | LEHPNRA | > 31
71 | PTHREGS | 16.5
72 | RQAAHHH | 0.771
73 | RNQGIWQ | 0.353
74 | PTQFDRP | 2.15
75 | SAAAQHN | 1.08
76 | VCTGAAK | 2.57
77 | SPTPKCG | 2.29
78 | CAAAQQH | 0.675
79 | TERTNKL | 5.44
80 | IESITLQ | > 33
81 | CQAAHHH | 0.444
82 | KHFQGGS | 1.08
83 | PRCPLTW | > 35
84 | SRDEPYG | 2.43
85 | AKMRTGD | 1.33
86 | KTTQKGL | > 23
87 | SNKRTCT | > 29
88 | VPGRKPG | > 23
89 | FPNGTQR | > 36
90 | PVAAHHH | 1.06
91 | TNHHHHH | 6.25
92 | TKRSIYV | > 23

Row | Substance | substrate phage enrichment score
93 | DIPQKLC | 2
94 | ALHLLPP | 12
95 | SEAAPCS | > 28
96 | TTLFQAE | > 21
97 | ERYFQGG | 2.12
98 | EIRTMQA | 5.75
99 | FLTECHR | 2.56
100 | KQQRAWL | 7.8
101 | DLCETVN | > 35
102 | KPVGVSP | 2.33
103 | SQAAHHH | 1.33
104 | KFSKFEG | 2.12
105 | LRPNCQI | 18
106 | SLYFQGG | 0.875
107 | LTAPHLD | 0.529
108 | VHNGKSG | 1.33
109 | CRLQSDS | > 25
110 | CAAAHHH | 0.799
111 | SSAAHHH | 1.35
112 | WRELQSY | > 25
113 | AANSCSH | 1
114 | PHEPINK | 2.56
115 | AVIRRTS | > 27

Row | Substance | substrate phage enrichment score
116 | TTQEERV | 6.43
117 | GNSCVVS | 0.684
118 | CAAAQHQ | 1.26
119 | TGRAQLH | > 31
120 | VPCPERH | 0.769
121 | SKAGSIR | 2
122 | WDMRDPA | > 26
123 | PRTERHP | > 23
124 | ITTEGKR | 5.43
125 | RAAAHQQ | 2.25
126 | CNVSMPP | 17.5
127 | ASAAAHH | 0.852
128 | LNIRDCP | 1.27
129 | PCAQYFQ | 10.9
130 | ESVQIQS | > 56
131 | SMQNEEP | > 25
132 | GNAAAHH | 0.799
133 | VDFQGGS | 1.6
134 | SAASHHH | 0.667
135 | CSRLQST | > 57
136 | KTMPRSP | 3.86
137 | KTPSSMQ | > 87
138 | LSREWPA | > 24

Row | Substance | substrate phage enrichment score
139 | ARCCTPE | 3.75
140 | MEAAHHH | 0.333
141 | LRTSTLQ | > 26
142 | SQVDSTG | 11.4
143 | PLAAHHH | 0.857
144 | VYLQGGS | 13
145 | EHSALTV | 12
146 | PATTVLH | 16.5
147 | VTKWSEL | > 37
148 | QNLKFRP | > 21
149 | QPSACRA | 1.75
150 | PTCRTVR | > 28
151 | CAAAQHH | 0.914
152 | LNFNCNS | 11.5
153 | HSQALNG | 12.5
154 | TWQLSCP | 0.733
155 | NTRSCLQ | > 48
156 | NSAAHHH | 2
157 | GDHTRLQ | > 32
158 | GCSSLHG | 2.32
159 | GLESFQG | > 25
160 | IGAAHHH | 0.647
161 | RQPCTLQ | 116

Row | Substance | substrate phage enrichment score
162 | EVGPRGP | 2.14
163 | TESELQG | 11.5
164 | SSMDINR | 1.93
165 | RMAAHHH | 0.667
166 | VNLKHAP | 9
167 | RPTCHLQ | > 47
168 | SANLHGH | 11.5
169 | LTNVKVH | 4.4
170 | VTLQTQR | > 25
171 | YLQDNAK | 1.19
172 | STLGHSR | > 75
173 | PQSQYYP | 2.1
174 | GHTASPA | 1
175 | RALESKQ | > 32
176 | THTGVRP | > 23
177 | QWPHAKP | > 24
178 | NQGGSAA | 0.643
179 | WAAAHHH | 0.799
180 | DHHHHGA | 0.591
181 | SLPVNLQ | 17.5
182 | TRMSDTR | > 22
183 | VGYAKLQ | > 26
